Counter-ions that a name gives are not always drawn. ± gives the standard deviation of the averaged measurements. Over roughly 1,900 compounds, “normalised cell viability (NPI; 0 = phenylarsine oxide control, 1 = DMSO control)” has its median near 1; the lowest 2% begin near 0.039. The list shows a part of the results.
Tested on: NCI-H1944
Test: normalised cell viability (NPI; 0 = phenylarsine oxide control, 1 = DMSO control) (fraction of DMSO control); NCI-H1944 is a non-small cell lung cancer line; higher = more viable cells (less compound toxicity)
Settings: 6 days
[1] = glucocorticoid arm: hydrocortisone 2.75 uM co-treatment, compound 1 µM
[2] = glucocorticoid arm: hydrocortisone 2.75 uM co-treatment, compound 5 µM
[3] = glucocorticoid arm: hydrocortisone 2.75 uM pre-treated 2 days and continued, compound 1 µM
[4] = glucocorticoid arm: hydrocortisone 2.75 uM pre-treated 2 days and continued, compound 5 µM
[5] = glucocorticoid arm: vehicle, compound 1 µM
[6] = glucocorticoid arm: vehicle, compound 5 µM
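Further: CTB read-out in 384-well plates, mean of triplicate wells, normalised per plate against 1 µM phenylarsine oxide and 0.1% DMSO, compounds added 24 h after seeding.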

Structure (SMILES)	normalised cell viability [1]	normalised cell viability [2]	normalised cell viability [3]	normalised cell viability [4]	normalised cell viability [5]	normalised cell viability [6]
CC(Cc1ccc(OCC(=O)O)cc1)NCC(O)c1cccc(Cl)c1 (stereo not given)	0.987 ± 0.028	1 ± 0.017	0.9923 ± 0.0086	0.998 ± 0.017	0.99 ± 0.012	0.996 ± 0.0069
NCCc1ccc(S(=O)(=O)F)cc1 [4-(2-Aminoethyl)benzenesulfonyl fluoride hydrochloride]	0.985 ± 0.01	1.01 ± 0.01	0.996 ± 0.013	1.01 ± 0.025	0.988 ± 0.016	0.988 ± 0.0053
CN[C@@H]1C[C@@H](c2ccc(Cl)c(Cl)c2)c2ccccc21 [Indatraline hydrochloride]	1 ± 0.0095	0.931 ± 0.02	1.02 ± 0.021	1.04 ± 0.084	1.01	1.03 ± 0.05
O=[N+]([O-])c1cc(O)c(O)c([N+](=O)[O-])c1 [3,5-Dinitrocatechol]	0.993 ± 0.0076	0.998 ± 0.01	1.001 ± 0.0085	0.994 ± 0.015	0.9977 ± 0.004	1.007 ± 0.0058
CN1[C@@H]2CC[C@H]1C[C@@H](OC(=O)[C@H](CO)c1ccccc1)C2 [Hyoscyamine]	0.959 ± 0.011	0.981 ± 0.012	0.9827 ± 0.0042	0.979 ± 0.037	0.9847 ± 0.0072	0.996 ± 0.014
CN1[C@@H]2CC[C@H]1C[C@@H](OC(=O)[C@H](CO)c1ccccc1)C2 [L-Hyoscyamine]	1.01 ± 0.017	0.993 ± 0.012	0.9977 ± 0.004	0.987 ± 0.015	1.007 ± 0.0058	1.002 ± 0.0068
C[C@H](N)CN1CCc2ccc(Br)cc21 [VER-3323 hemifumarate salt]	1.001 ± 0.0085	1.01 ± 0.024	1 ± 0.011	1.05 ± 0.021	0.9897 ± 0.0015	1 ± 0.015
C=CCN(C1=NCCN1)c1c(Cl)cccc1Cl [Alinidine]	0.999 ± 0.012	0.992 ± 0.016	1.02 ± 0.049	1 ± 0.021	0.9973 ± 0.0031	0.9913 ± 0.0035
CC[C@@]1(O)C(=O)OCc2c1cc1n(c2=O)Cc2cc3ccccc3nc2-1 [(S)-(+)-Camptothecin]	0.066 ± 0.014	0.00107 ± 0.0017	0.328 ± 0.025	0.0202 ± 0.0036	0.0279 ± 0.0022	-0.000721 ± 0.0022
CN1c2ccccc2C(NCCCCCCC(=O)O)c2ccc(Cl)cc2S1(=O)=O (stereo not given) [Tianeptine sodium]	1.007 ± 0.0058	1 ± 0.035	1.02 ± 0.015	1.02 ± 0.024	0.995 ± 0.0056	0.9927 ± 0.0025
CN1CCN(c2ccc([N+](=O)[O-])c3no[n+]([O-])c23)CC1	0.984 ± 0.015	1.04 ± 0.011	0.993 ± 0.0076	1.01 ± 0.01	0.984 ± 0.011	0.988 ± 0.01
NC(CCP(=O)(O)O)C(=O)O (racemic) [(±)-2-Amino-4-phosphonobutyric acid]	0.9883 ± 0.0042	0.998 ± 0.0017	1.01 ± 0.014	1 ± 0.042	0.9923 ± 0.0071	0.9973 ± 0.0025
Clc1cccc(N2CCNCC2)c1 [1-(3-Chlorophenyl)piperazine dihydrochloride]	1.005 ± 0.0092	1.01 ± 0.021	1.007 ± 0.0058	1.02 ± 0.014	0.992 ± 0.0044	0.9913 ± 0.0076
C#C[C@]1(O)CC[C@H]2[C@@H]3CCC4=Cc5nc6nc7ccccc7n6cc5C[C@]4(C)[C@H]3CC[C@@]21C	1.02 ± 0.015	1.06 ± 0.021	1.05 ± 0.038	1.06 ± 0.023	1.01 ± 0.01	1.023 ± 0.0058
CCNC(=O)C[C@@H]1N=C(c2ccc(Cl)cc2)c2cc(OC)ccc2-n2c(C)nnc21	0.957 ± 0.03	0.993 ± 0.074	0.906 ± 0.074	0.9773 ± 0.0038	1.01 ± 0.024	0.945 ± 0.012
C[N+](C)(C)CCCCCCCCCC[N+](C)(C)C [Decamethonium dibromide]	1.004 ± 0.0098	0.976 ± 0.014	0.99967 ± 0.00058	0.9817 ± 0.0081	0.98967 ± 0.00058	0.992 ± 0.0017
C[N+](C)(C)CCCCCCCCCC[N+](C)(C)C [Decamethonium Bromide]	1.023 ± 0.0058	1.04 ± 0.02	1.03 ± 0.017	1.02 ± 0.026	1.01 ± 0.01	1.013 ± 0.0058
c1ccc2nc(N3CCNCC3)ccc2c1 [Quipazine dimaleate]	0.996 ± 0.004	0.996 ± 0.03	0.882 ± 0.21	1.03 ± 0.02	0.9913 ± 0.0035	0.997 ± 0.0027
O=C1NCN(c2ccccc2)C12CCN(CC1COc3ccccc3O1)CC2 (stereo not given) [Spiroxatrine]	0.98 ± 0.0046	0.98 ± 0.012	1 ± 0.018	0.9933 ± 0.007	0.9847 ± 0.0078	0.9713 ± 0.0067
CN1C[C@H](C(=O)N[C@]2(C)O[C@@]3(O)[C@@H]4CCCN4C(=O)[C@H](Cc4ccccc4)N3C2=O)C[C@@H]2c3cccc4[nH]cc(c34)C[C@H]21 [Dihydroergotamine methanesulfonate]	0.991 ± 0.0072	0.984 ± 0.012	0.9897 ± 0.0042	0.996 ± 0.025	0.995 ± 0.002	0.997 ± 0.002
CC1C2Cc3ccc(O)cc3C1(C)CCN2CC1CC1 (single isomer, unassigned; (+)) [(+)-Cyclazocine]	1.001 ± 0.0085	1.003 ± 0.0058	1 ± 0.01	0.978 ± 0.013	1.01	0.9993 ± 0.0095
C[N+]1(C)[C@@H]2CC[C@H]1C[C@@H](OC(=O)C(CO)c1ccccc1)C2 (stereo not given in full) [Atropine methyl nitrate]	0.976 ± 0.0066	1.001 ± 0.0078	0.9843 ± 0.0093	1.01 ± 0.021	0.9787 ± 0.0091	0.989 ± 0.0046
C[N+]1(C)[C@@H]2CC[C@H]1C[C@@H](OC(=O)C(CO)c1ccccc1)C2 (stereo not given in full) [Atropine methyl bromide]	0.988 ± 0.0053	0.989 ± 0.011	1 ± 0.0084	1 ± 0.015	0.974 ± 0.0087	0.983 ± 0.017
CC(CCc1ccccc1)NC(C)C(O)c1ccc(O)cc1 (stereo not given) [Nylidrin hydrochloride]	0.987 ± 0.011	0.955 ± 0.0096	1.007 ± 0.0058	1.03 ± 0.08	1.003 ± 0.0058	1.01 ± 0.017
Cc1c(C(=O)c2cccc3ccccc23)c2cccc3c2n1[C@H](CN1CCOCC1)CO3 [( R)-(+)-WIN 55,212-2 mesylate]	1.004 ± 0.01	0.0209 ± 0.0039	1.01 ± 0.029	0.016 ± 0.002	1.013 ± 0.0058	0.00693 ± 0.00096

Reference: the supplement of paper PMC8285479
